These results are taken from article PMC6919601, “Identification of Plasmodium dipeptidyl aminopeptidase allosteric inhibitors by high throughput screening” (PLoS ONE, 2019).

Values joined by “and” are separate entries in the source; they are usually repeats but may differ in a detail not shown here. Equal entries are not always repeated. In all, about 110,000 compounds went through this assay and about 230 (0.21%) showed an effect of 50% or more. Some of the results follow.
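Note: 30 min substrate incubation versus DMSO and 10 µM JCP410 controls.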

Chain of DPAP1 (Q8IIJ9 whole entry, looked up): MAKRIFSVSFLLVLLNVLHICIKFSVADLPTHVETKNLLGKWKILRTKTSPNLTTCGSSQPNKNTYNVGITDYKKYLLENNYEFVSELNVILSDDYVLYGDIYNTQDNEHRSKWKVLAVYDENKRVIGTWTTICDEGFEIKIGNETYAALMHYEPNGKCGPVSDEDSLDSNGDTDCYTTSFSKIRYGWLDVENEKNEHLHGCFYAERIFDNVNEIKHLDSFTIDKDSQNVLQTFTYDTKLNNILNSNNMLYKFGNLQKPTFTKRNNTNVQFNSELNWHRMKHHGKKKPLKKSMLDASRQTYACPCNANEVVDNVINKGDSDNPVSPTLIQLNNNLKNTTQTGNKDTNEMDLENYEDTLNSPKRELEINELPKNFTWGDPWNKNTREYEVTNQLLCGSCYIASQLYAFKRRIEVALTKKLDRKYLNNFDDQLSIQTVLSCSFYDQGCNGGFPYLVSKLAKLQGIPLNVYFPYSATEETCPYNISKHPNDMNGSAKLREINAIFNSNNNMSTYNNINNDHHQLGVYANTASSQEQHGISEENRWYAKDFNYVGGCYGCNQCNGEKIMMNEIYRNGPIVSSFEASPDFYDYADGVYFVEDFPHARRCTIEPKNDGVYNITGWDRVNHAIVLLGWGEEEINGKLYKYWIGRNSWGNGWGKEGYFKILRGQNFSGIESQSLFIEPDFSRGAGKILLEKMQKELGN

This test concerns the target DPAP1 (Plasmodium falciparum, UniProt Q8IIJ9). The test can be described thus: primary screen, percent inhibition; read by cleavage of a fluorogenic dipeptide substrate; higher = more effect of the substance. On the set-up: species or system P. falciparum D10 trophozoite lysates; single well.
For the molecule `CC(C(=O)NCc1ccc2c(c1)OCO2)n1sc2ccccc2c1=O` (centres unmarked), the “% Inhibition @ 10 uM” value is listed as -2.78%.
Take `CCCOc1ccc(C(=O)NC2CCS(=O)(=O)C2)cc1` (centres unmarked): the “% Inhibition @ 10 uM” value is listed as -4.52%.
The figure for `CCCN1CN(c2nc3ccccc3s2)CN(c2nc3ccccc3s2)C1` is -1.72%.
For the molecule `O=C(O)Cc1c(-c2ccc(Cl)cc2)nc2ccccc2c1C(=O)O`, the “% Inhibition @ 10 uM” value is on record as -0.256%.
The figure for `Cc1noc2ncnc(NCCCN3C(C)CCCC3C)c12` (centres unmarked) is -1.79%; for `Cc1c(C(=O)N2CC=C(c3ccccc3)CC2)sc2nc3n(c(=O)c12)CCCCC3` it is -0.205%.
With `Nc1nc(CSc2nnnn2-c2ccc(Cl)cc2)nc(N2CCOCC2)n1` the figure was -1.24%; with `COC(=O)C1=CN(C)C=C(C(=O)OC)C1c1ccc(C(F)(F)F)cc1`, 3.47%; with `O=C(Cn1ncc2c3ccccc3n(Cc3ccccc3F)c2c1=O)NCCc1ccccc1`, 0.137%.
In the case of `O=C(CC(c1ccc(F)cc1)N1Cc2ccccc2C1=O)NC1CCCC1` (centres unmarked), the “% Inhibition @ 10 uM” value is -1.83%.
With `CCCN1CCC(N2CCCC2CO)CC1` (centres unmarked) the figure was -6.62%; with `CCCc1[nH]nc2c1C(c1ccccc1Br)C(C#N)=C(N)O2` (centres unmarked), -6.27%.
With `Cc1ccccc1C(=O)N[C@@H](CC1CCCCC1)C(=O)NCC#N` the figure was -1.83%; with `Fc1cccc(Cl)c1-c1nc(-c2ccccc2)c(-c2ccccc2)[nH]1`, -0.0217%.
`COc1ccc(C(O)P(=O)(Oc2ccccc2)Oc2ccccc2)cc1` (centres unmarked): the “% Inhibition @ 10 uM” value worked out at 3.74%.
With `O=C(C1=C(O)C(=O)N(c2ncccn2)C1c1ccccc1F)c1ccc(F)cc1` (centres unmarked), the “% Inhibition @ 10 uM” value is given as -7.61%.
With `O=C(Nc1ccccc1Br)C1CC(=O)N(c2ccc(F)cc2)C1` (centres unmarked) the figure was -1.08%; with `COc1cc(/C=C2/C(=N)N3C(SC)=NSC3=NC2=O)ccc1O`, -3.79%; with `O=C(Nc1nc(-c2ccc(S(=O)(=O)N3CCCC3)cc2)cs1)c1cccc(Cl)c1`, 4.31%.
With `CC(C)(C)c1cc(CN2CCN(CCN)CC2)cc(C(C)(C)C)c1O` the figure was -6.09%; with `COc1ccc(C2C(C(C)=O)=C(C)N(C)C3=C2C(=O)c2ccccc23)cc1` (centres unmarked), 1.86%; with `COc1cc2c(cc1OC)C(c1cc3c(cc1[N+](=O)[O-])OCO3)NCC2` (centres unmarked), -3.92%.
With `Cc1cnc(NC(=O)c2c(O)c3ccccc3n(CCC(C)C)c2=O)s1` the figure was 1.67%; with `CN(C)CCCN(CCCc1ccccc1)CCCN(C)C`, 0.273%; with `CCOc1cc(/C=C2/C(=N)N3OC(C)=CC3=NC2=O)ccc1OCCOc1ccc(C)cc1`, 0.317%.
As for `CN(C)CCNC(=O)c1ccc(CSc2nc3ccncc3n2Cc2cccc(F)c2)cc1`, the “% Inhibition @ 10 uM” value came to 2.65%.
With `CCc1c(C)sc(NC(=O)COc2ccc(F)cc2)c1C#N` the figure was 0.777%; with `OC1CCCc2c1[nH]c1ccc(OCc3ccccc3)cc21` (centres unmarked), -3.5%.
The figure for `CCN(CC)S(=O)(=O)c1cc(C(=O)O)ccc1C` is -2.51%; for `COC(=O)C1=CN(Cc2ccc(OC)cc2)C=C(C(=O)OC)C1c1cccc(Oc2ccccc2)c1` it is 3.45%.
As for `FC(F)(F)c1ccc(CN2CCN(C/C=C/c3ccccc3)CC2)cc1`, the “% Inhibition @ 10 uM” value is reported as -1.86%.
Take `CN(C)c1ccc(C(=O)Nc2ccc(Cl)c(C(N)=O)c2)cc1`: the “% Inhibition @ 10 uM” value was -0.034%.
Consider `CCN(CC)c1sc(S(=O)(=O)CC)nc1S(=O)(=O)c1ccc(C)cc1`, for which the “% Inhibition @ 10 uM” value is on record as -4.04%.
In the case of `CCCNS(=O)(=O)c1c[nH]c(C(=O)OC)c1`, the “% Inhibition @ 10 uM” value is recorded as 2.24%.
Turning to `Cc1cccc(C)c1-n1nnnc1C(c1ccc(Cl)cc1Cl)N(C)C` (centres unmarked), the “% Inhibition @ 10 uM” value came to 6.61%.
Turning to `O=[N+]([O-])c1ccc(N2CCN(Cc3ccc(Br)o3)CC2)cc1`, the “% Inhibition @ 10 uM” value came out at 3.1%.
With `COCCCNC(=O)CS(=O)(=O)Cc1nc(-c2ccc(C)cc2)oc1C`, the “% Inhibition @ 10 uM” value is given as -0.138%.
With `CC1CCCCN1Cc1csc2c1CCCC2` (centres unmarked) the figure was 6.89%; with `CCCCCCNC(=O)C1C2C=CC(C2)C1C(=O)O` (centres unmarked), 3.16%; with `OC(C#Cc1ccccc1)c1ccco1` (centres unmarked), 3.82%.
Turning to `CCOC(=O)N1CCN(C(=O)C2CCN(c3nc4ccc(CC)cc4s3)CC2)CC1`, the “% Inhibition @ 10 uM” value was 1.07%.
Take `CC(C)c1ccc(OCC(=O)N2CCCCC2)c(Br)c1`: the “% Inhibition @ 10 uM” value is given as 1.49%.
The figure for `COc1ccc(OCC(=O)N2N=C(c3ccc(Br)cc3)CC2(O)C(F)(F)F)cc1` (centres unmarked) is -0.865%.
In the case of `COc1cccc(-c2nc(-c3cccnc3)no2)c1`, the “% Inhibition @ 10 uM” value came out at 3.01%.
With `Nc1c(C(=O)c2ccc(Cl)cc2)oc2ccccc12` the figure was -0.99%.
Regarding `O=C(O)/C=C/C(=O)c1c(-c2ccccc2)[nH]c2ccccc12`, the “% Inhibition @ 10 uM” value is listed as -0.744%.
On to `Cc1ccccc1NC(=O)COc1ccc(Cl)cc1`, for which the “% Inhibition @ 10 uM” value was found to be 4.8%.
The figure for `CCc1nnc(NC(=O)CSc2nnc(-c3ccccc3O)n2CC)s1` is 0.032%.
`Cc1cc(-c2cccs2)c2c(n1)sc1c(O)cc(O)nc12`: the “% Inhibition @ 10 uM” value is reported as 0.0719%.
The figure for `O=C(NC1CCC(NC(=O)C2CCCC2)CC1)C1CCCC1` (centres unmarked) is 0.583%; for `CC(C)C[C@H](NC(=O)OCc1ccccc1)C(=O)NC(C#N)c1ccccc1` (some centres unmarked) it is 9%.
Consider `CCN(CC)CCCNC(=O)Cn1ncc2c3ccccc3n(Cc3c(C)cc(C)cc3C)c2c1=O`, for which the “% Inhibition @ 10 uM” value turned out to be 1.8%.
With `Cc1nnc(N2CCN(C(=O)NC34CC5CC(CC(C5)C3)C4)CC2)c2nn(-c3ccccc3)c(C)c12` the figure was 3.33%.
On to `CC1CCN(C(=O)c2cc(Cl)ccc2NC(=O)c2ccco2)CC1`, for which the “% Inhibition @ 10 uM” value is recorded as 3.86%.
Consider `CCC(=O)CSC1=C(C#N)C(c2ccc(Cl)cc2)C(C(C)=O)=C(C)N1` (centres unmarked), for which the “% Inhibition @ 10 uM” value came to 2.8%.
The figure for `COc1ccc(-c2cn3c(C)c(C(=O)NC(C)C)sc3n2)cc1` is -0.138%; for `Cc1cc(C(F)(F)F)nn1CC(=O)Nc1sc2c(c1C#N)CCCC2` it is 13%; for `O=C(CN1N=C(c2ccc(Cl)cc2)CCC1=O)NCc1cccnc1` it is -1.21%.
As for `CCc1ccc(CN(C)CCN(C)C)cc1`, the “% Inhibition @ 10 uM” value was -2.6%.
`C=CCN1C(=O)N/C(=C/c2cc(C)n(-c3sc4c(c3C#N)CCCC4)c2C)C1=O`: the “% Inhibition @ 10 uM” value amounted to 6.24%.
With `CC1(C)Cc2c(sc3nc(SCC(N)=O)n(-c4ccccc4)c(=O)c23)CO1` the figure was 1.02%; with `COC(=O)C1=C(C)NC(=O)C1(Nc1nc2ccccc2s1)C(F)(F)F` (centres unmarked), -3.33%; with `CCC(C)S(=O)(=O)c1oc(-c2ccc(F)cc2)nc1S(=O)(=O)c1ccccc1` (centres unmarked), 2.14%.
For `COc1ccc(-c2[nH]nc3c2C(c2ccc(C(C)C)cc2)C(C#N)=C(N)O3)cc1` (centres unmarked), the “% Inhibition @ 10 uM” value is listed as 7.73%.
As for `O=C(O)C1CCN(c2ncccn2)CC1`, the “% Inhibition @ 10 uM” value was -4.07%.
The figure for `O=S(=O)(c1ccc(-n2cnnn2)cc1)N1CCC2(CC1)OCCO2` is -0.671%; for `COc1ccc(C(=O)c2cnc3nc(C)ccc3c2O)cc1` it is 1.5%.
Consider `CCN1C(=O)/C(=C/c2cc(C)n(CC)c2C)S/C1=N\c1ccc(N2CCOCC2)cc1`, for which the “% Inhibition @ 10 uM” value amounted to 2.84%.
With `CCc1c(O)cc(=O)n(-c2ccccc2)c1-c1ccccc1` the figure was 2.32%.
Regarding `O=C(Nc1cnn(Cc2ccc(Cl)cc2Cl)c1)c1cc(-c2ccco2)on1`, the “% Inhibition @ 10 uM” value is -5.09%.
Take `CCN(CC)c1ccc(NC(=O)C(C)N2C(=O)c3ccccc3C2=O)cc1` (centres unmarked): the “% Inhibition @ 10 uM” value is -9.82%.
With `COc1cccc2cc(-c3nc(-c4ccc(-n5cccc5)cc4)no3)c(=O)oc12`, the “% Inhibition @ 10 uM” value is on record as -2.19%.
With `CC(Nc1cc(C)ccn1)=C(C#N)C#N` the figure was -0.406%; with `COc1cc(-c2cc(C(=O)O)c3ccccc3n2)ccc1O`, -4.67%; with `O=C1CC(c2ccccc2)CC(=O)C1=CNCCC(c1ccccc1)c1ccccc1` (centres unmarked), -0.357%.
The figure for `CCN(CC)CCN(C(=O)Cc1ccccc1)c1nc2ccc(C)cc2s1` is 0.233%; for `COc1cc(CNC(=O)c2ccc(C(=O)c3ccccc3)cc2)cc(OC)c1OC` it is -0.891%.
For the molecule `CC1CCN(C(=O)CN(C)S(=O)(=O)c2cc(Cl)ccc2Cl)CC1`, the “% Inhibition @ 10 uM” value is 1.88%.
For `CC1(C)Cc2nc3ccccc3c(NCc3ccccc3)c2C(O)C1` (centres unmarked), the “% Inhibition @ 10 uM” value is 5%.
With `CCCCSC1=C(C#N)C(=O)NC(c2ccc(OC)c(OC)c2)S1` (centres unmarked) the figure was 1.72%.
For `CCn1ncc(C(=O)Nc2ccc(S(=O)(=O)N3CCCC3)cc2)c1C`, the “% Inhibition @ 10 uM” value is on record as -0.63%.
As for `Cc1ccc(OCCCCCN2CCCCC2)cc1C`, the “% Inhibition @ 10 uM” value came out at 1.35%.
With `COCCC/N=C/c1c(C)nn(-c2ccc(Cl)cc2)c1O` the figure was 3.39%; with `N#CC1=C(N)C(C#N)(C#N)C(c2ccco2)C2CCCC=C12` (centres unmarked), -2.37%; with `CCCc1[nH]nc2c1C(c1ccc(Br)s1)C(C#N)=C(N)O2` (centres unmarked), -2.16%.
For `COc1ccc(Cn2c(-c3ccc(OC)cc3)nc3ccccc32)cc1`, the “% Inhibition @ 10 uM” value turned out to be 2.41%.
With `COc1cc(-n2c(C)nc3cc(C(=O)NCC4CCCO4)ccc32)cc(OC)c1OC` (centres unmarked), the “% Inhibition @ 10 uM” value is recorded as -2.17%.
Regarding `CN1C(=O)c2ccccc2C(O)c2ccccc21` (centres unmarked), the “% Inhibition @ 10 uM” value was -3.97%.
With `CN(Cc1ccccc1)C(=O)CNS(=O)(=O)c1cccs1` the figure was 0.287%; with `O=C(O)COCC(=O)NCCOc1ccccc1`, -2.19%.
The figure for `COc1cc(C)c(S(=O)(=O)n2ccc(C)n2)cc1C` is -4.62%.
The figure for `CN1C2CCC1CC(NCCc1ccccc1)C2` (centres unmarked) is 0.986% and 3%.
`O=C1N=C(N2CCOCC2)S/C1=C\c1ccccc1Cl`: the “% Inhibition @ 10 uM” value worked out at 3.72%.
For `COc1cccc(-c2nc(O)c3c(n2)Oc2ccc(Cl)cc2C3)c1O`, the “% Inhibition @ 10 uM” value is reported as 6.98%.
With `Cc1nn(CC(=O)NC(C)CCc2ccccc2)c(=O)c2cc3cc(F)ccc3n12` (centres unmarked), the “% Inhibition @ 10 uM” value turned out to be 7.81%.
Consider `CCCCC(=O)Nc1nn(C)c2nc(C)cc(C)c12`, for which the “% Inhibition @ 10 uM” value is listed as 13.4%.
The figure for `Cc1cc(C)cc(OCCNC(=O)C(C(C)C)N2C(=O)c3ccccc3C2=O)c1` (centres unmarked) is 2.38%; for `CCCOc1ccc(-c2cn3ccccc3n2)cc1` it is 0.964%.
The figure for `Cc1ccc(CNC(=O)CCC(=O)n2ncc3c(C)cccc32)cc1` is 3.29%.
The figure for `Cc1ccc(S(=O)(=O)Cc2nc3ccccc3s2)cc1` is -6.07%; for `O=C(Nc1ccccc1C(=O)NO)c1cccnc1` it is 2.41%.
